Measurements taken from the RNAGym collection of RNA variant scans (doi:10.1093/nar/gkz1192).
The source gives no read counts; variants with many changes may rest on few reads.

B1: CPEB3 Ribozyme (parent)
chain: UAACAGGGGGCCACAGCAGAAGCGUUCACGUCGCAGCCCCUGUCAGAUUCUGGUGAAUCUGCGAAUUCUGCUGUAUAUCUC

Variants of: B1
Assay: self-cleavage, relative activity (ratio to wild type); higher = more cleavage; in vitro, sequencing
How it was run: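 Relative activity compares each variant's cleaved/total read fraction with that of the unmutated ribozyme. To get these fractions, barcoded CPEB3 ribozyme libraries from rounds of error-prone PCR were transcribed with T7 RNA polymerase for 5 hours at 37°C and then given 15 min of DNase I treatment before EDTA was added. The RNAs were reverse transcribed with template switching and sequenced on Illumina, and DNA sequencing linked barcodes to variants. A minimum of 5 reads applied, and three batches were averaged.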

| Variant | self-cleavage |
| --- | --- |
| UAACAGGGGGCCACAGCAGAAGCGUUCACGACGCAGCCCCUGUCAGAUUCUGGUGGAUCUGCGAAUUAUGCUGUUUAUCUC [U31A A56G C68A A75U] | 0.15 |
| UAACAGGGGGCCACAGCAGAAGCGUUCACGACGCUGCCCCUGUCAGACCCUGGUGAAUCUGCGAAUUCUGCUGUAUACCUC [U31A A35U U48C U49C U78C] | 0.12 |
| UAACAGGGGGCCACAGCAGAAGCGUUCACGACGCAGCCCCCGUCGGAUUCUGGUGAAUCUGCGAAUCCCGCUGUAUAUCUC [U31A U41C A45G U67C U69C] | 0.14 |
| UAACAGGGGGCCACAGCAGAAGCGUUCACGACGCAGCCCCUGUCAGAUUCUGGUGAAUCUGCCAAUUCUGCCGUAUAUCUC [U31A G63C U72C] | 0.51 |
| UAACAGGGGGCCACAGCAGAAGCGUUCACGACGCACCCCCUGUCAGAUUCUGGUGAAUCUGCGAAUUCUGCAGUAUAUCUC [U31A G36C U72A] | 0.33 |
| UAACAGGGGGCCACAGCAGAAGCGUUCACGACGCAGCCCCCGUCAGAUUCUGGUGAAUCUGCGAAUUCGGCUGUAUAUCCC [U31A U41C U69G U80C] | 0.28 |
| UAACAGGGGGCCACAGCAGAAGCGUUCACGACGCAACCCCUGUCAGAUUCUGGUGAAUCCGCGAUUUCUGCUGUAUAUCUC [U31A G36A U60C A65U] | 0.05 |
| UAACAGGGGGCCACAGCAGAAGCGUUCACGACGCAGCCCCUGUCAGAUUCUGGUGAGUCUGCGAAUUCAGCUGUAUAUCCC [U31A A57G U69A U80C] | 0.09 |
| UAACAGGGGGCCACAGCAGAAGCGUUCACGACGCAGCCCCUGUCGGAUUCUGGUGAAUCUGCGAAUACAGCUGUAUAUCUC [U31A A45G U67A U69A] | 0.23 |
| UAACAGGGGGCCACAGCAGAAGCGUUCACGACGCUGCCCCUGCCAGAUUCUGGUGAGUCUGCGAAUUCUGCUGUAUAUCUC [U31A A35U U43C A57G] | 0.15 |
| UAACAGGGGGCCACAGCAGAAGCGUUCACGACGCAGCCCCUGUCAGAUUCUGGUGAAUCUGCGAGUUCUGCCGUAUAUUUC [U31A A65G U72C C79U] | 0.1 |
| UAACAGGGGGCCACAGCAGAAGCGUUCACGACGCUGCCCCUGUCAGAUUCUGGUGAACCUGCGAUUUCUGCUGUAUAUCUC [U31A A35U U58C A65U] | 0.18 |
| UAACAGGGGGCCACAGCAGAAGCGUUCACGACGCAGCCCCUGUCAGAUUCUGGUGUAUCUGCGAAUACUGCUGUAUAUCUC [U31A A56U U67A] | 0.14 |
| UAACAGGGGGCCACAGCAGAAGCGUUCACGACGCAGCCCCUGUCAGAUUCUGGUGAGUCUGCGAAUUCUGCUGUAUAUAUC [U31A A57G C79A] | 0.64 |
| UAACAGGGGGCCACAGCAGAAGCGUUCACGACGCAGCCCCUGUCAGUUACUGGUGAAUCUGCGAUUUCUGCUGUAUACCUC [U31A A47U U49A A65U U78C] | 0.13 |
| UAACAGGGGGCCACAGCAGAAGCGUUCACGACGCAGCCCCAGUCAGAUUCUGGUGAAUCAGCGAAUUCUGCCGUAUAUCCC [U31A U41A U60A U72C U80C] | 0.2 |
| UAACAGGGGGCCACAGCAGAAGCGUUCACGACGCAGCCCCAGCCAGAUUCUGGUGAAUCUGCGAAUUCUGCUGUAUAUCUC [U31A U41A U43C] | 0.1 |

| Variant | self-cleavage |
| --- | --- |
| UAACAGGGGGCCACAGCAGAAGCGUUCACGACGCAGCCCAUGUCAGAUUCUGGUGAAUCAGCGAAUUCUGCUGUAUAUCUC [U31A C40A U60A] | 0.16 |
| UAACAGGGGGCCACAGCAGAAGCGUUCACGACGCAGCCCGUGUCAGAUUCUGGUGAACCUGCGAAUUCUGCUGUAUAUCUC [U31A C40G U58C] | 0.1 |
| UAACAGGGGGCCACAGCAGAAGCGUUCACGACGCAGCCCAUGUCAGAUUCCGGUGAACCUGCGAAUCCUGCUGUAUAUCUC [U31A C40A U51C U58C U67C] | 0.05 |
| UAACAGGGGGCCACAGCAGAAGCGUUCACGACGCAGCCCCAGUCAGAUUCUGGUGAGUCAGCGAAUUCUGCUGUAUAUCUC [U31A U41A A57G U60A] | 0.11 |
| UAACAGGGGGCCACAGCAGAAGCGUUCACGACGCAGCCCCUGUCAGAUUCUAGUGGAUCAGCGAAUUCUACUGUAUAUCUC [U31A G52A A56G U60A G70A] | 0.22 |
| UAACAGGGGGCCACAGCAGAAGCGUUCACGACGCAGCCCCUGUCAGGUUCUGGUGAAUCUGCGAAUUCUGCUGUAUAUCUU [U31A A47G C81U] | 0.22 |
| UAACAGGGGGCCACAGCAGAAGCGUUCACGACGCAGCCCCUGUCAGAUUCUGGUUAGUCUGCGGAUUCCGUUGUAUAUCUC [U31A G55U A57G A64G U69C C71U] | 0.1 |
| UAACAGGGGGCCACAGCAGAAGCGUUCACGACGCAGCCCCUGUCAGAUUCUGGUGAUUCUGCGAAUUCUCCUGUAUAUCUC [U31A A57U G70C] | 0.12 |
| UAACAGGGGGCCACAGCAGAAGCGUUCACGACGCAGCCCCUGUCAUAUUCUGGCGAAACUGCGAAUUCUGCUGUAUAGCUC [U31A G46U U54C U58A U78G] | 0.09 |
| UAACAGGGGGCCACAGCAGAAGCGUUCACGACGCAGCCCUUGUCAGAUGCCGGUGAAUCUGCGAACUCAGCUGUAUAUCUC [U31A C40U U49G U51C U66C U69A] | 0.06 |
| UAACAGGGGGCCACAGCAGAAGCGUUCACGACGGAGCCCCUGUCAGAUUCCGGUGAAUCUGCGAACUCUGCUGUAUAUCUC [U31A C34G U51C U66C] | 0.09 |
| UAACAGGGGGCCACAGCAGAAGCGUUCACGACACAGCCCCUGUCAGAUUCUGGUGAAUCUGCGAAUCCUGCUGUAUAUCUC [U31A G33A U67C] | 0.07 |
| UAACAGGGGGCCACAGCAGAAGCGUUCACGACGCAGCCCCUGUCAGGCUCUGGUGAAUCUGCGAAUUCUGCUGUAUAUCUC [U31A A47G U48C] | 0.26 |
| UAACAGGGGGCCACAGCAGAAGCGUUCACGACGCAGCCCCUGUCAGAUUCUGGUGAGUCUGCGGAUUCUGCUGUAUAUCUC [U31A A57G A64G] | 0.3 |
| UAACAGGGGGCCACAGCAGAAGCGUUCACGACGCAGCCCCUGUCAGUUUCUGGUGAAUCUGCGAAUCCUGCUGUAUACCUC [U31A A47U U67C U78C] | 0.33 |
| UAACAGGGGGCCACAGCAGAAGCGUUCACGACGCAGCCCCAGUCAGAUUCUGGUGAAUCUGCGAAUUCCGCUGUAUAUCUC [U31A U41A U69C] | 0.07 |
| UAACAGGGGGCCACAGCAGAAGCGUUCACGACGCAGCCCCAGUCAGAUUCUGGUGAAUCUGUGAAUUCUGCCGUAUAUCUC [U31A U41A C62U U72C] | 0.15 |
